In the assay the test system is influenza virus subtypes H1N1, H3N2, H5N1 and H7N9. Set-up: species or system mice, cotton rats and ferrets. Conditions: in vivo.

Molecules are shown by their SMILES.

`CCOC(=O)C1=C[C@@H](OC(CC)CC)[C@H](NC(C)=O)[C@@H](N)C1` [Tamiflu®, oseltamivir]: the “symptom reduction compared with Sar^9, Met (O2)^11-Substance P-treated subjects” value was “did not exhibit the symptom reduction produced in the subjects treated with Sar^9, Met (O2)^11-Substance P”.

Values taken from patent US20170065663A1, “SUBSTANCE AND METHOD FOR TREATING INFLUENZA” (priority 2014, published 2017).
